# The full ranking holds about 110,000 compounds; the median of “z-score” is about -0.1, and the highest 2% start at about 2. The list shows a part of the results.
# Target: Metabotropic glutamate receptor 8 (Rattus norvegicus) (UniProt P70579)
# Assay: mGluR8 Gi/Go-coupled signaling modulation – cell-based, rat, thallium flux, HTS, primary screen (AID 488969)
# Conditions: HEK293 rat mGluR8, GIRK (G protein-gated inwardly rectifying potassium channel) thallium flux, FluoZin2; at 10 µM; stronger effect = higher value; submaximal glutamate (EC20) added with thallium
# Chain of UniProt P70579 (P70579 whole entry, looked up): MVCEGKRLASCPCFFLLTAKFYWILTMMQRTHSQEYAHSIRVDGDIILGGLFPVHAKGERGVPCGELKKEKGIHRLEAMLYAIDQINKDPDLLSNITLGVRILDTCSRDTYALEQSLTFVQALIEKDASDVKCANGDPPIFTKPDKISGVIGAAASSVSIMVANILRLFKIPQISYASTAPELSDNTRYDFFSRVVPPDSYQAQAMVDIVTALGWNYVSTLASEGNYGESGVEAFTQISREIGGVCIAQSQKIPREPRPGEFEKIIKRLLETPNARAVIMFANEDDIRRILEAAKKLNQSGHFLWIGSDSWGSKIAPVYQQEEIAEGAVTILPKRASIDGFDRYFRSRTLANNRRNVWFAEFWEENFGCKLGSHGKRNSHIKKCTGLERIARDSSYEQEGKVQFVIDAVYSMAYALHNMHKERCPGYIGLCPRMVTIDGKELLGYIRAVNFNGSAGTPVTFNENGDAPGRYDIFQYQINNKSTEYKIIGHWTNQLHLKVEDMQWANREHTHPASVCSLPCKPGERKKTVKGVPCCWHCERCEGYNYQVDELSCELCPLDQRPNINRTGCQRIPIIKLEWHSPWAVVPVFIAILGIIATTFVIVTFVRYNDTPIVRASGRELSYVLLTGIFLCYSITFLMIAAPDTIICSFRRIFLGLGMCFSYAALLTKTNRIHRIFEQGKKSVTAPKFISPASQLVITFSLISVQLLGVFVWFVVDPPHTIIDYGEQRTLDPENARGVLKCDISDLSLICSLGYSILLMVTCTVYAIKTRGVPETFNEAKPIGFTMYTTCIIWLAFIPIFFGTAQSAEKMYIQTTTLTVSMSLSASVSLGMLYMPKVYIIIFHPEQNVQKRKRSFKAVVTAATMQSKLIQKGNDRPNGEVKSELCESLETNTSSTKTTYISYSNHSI
row,SMILES,z-score
1,c1ccc2c(c1)Cc1cc(CN3CCOCC3)ccc1-2,0.618
2,Nc1nnc(SCc2ccc3c(c2)OCO3)s1,-0.203
3,COc1ccc(Cl)cc1C(=O)Nc1ccccc1N1CCN(C(=O)C(C)C)CC1,0.564
4,C/C(=N\NC(=O)c1csc(C)c1C)c1ccco1,0.816
5,CC1CCC(NC(=O)c2ccc3nc[nH]c3c2)CC1 (stereo not given),0.0196
6,Cc1ccc(SCCNC(=O)c2ccc(C)c(S(=O)(=O)Nc3cccc(C)c3)c2)cc1,0.00716
7,O=C(c1ccccc1)N1CCN(S(=O)(=O)N2CCCCC2)CC1,0.169
8,CCCc1nn(C)c2c1C(c1cccnc1)C(C#N)=C(N)O2 (stereo not given),0.17
9,CCCCc1ccc(-c2csc(/C(C#N)=C/c3ccco3)n2)cc1,-0.275
10,O=C(COC(=O)/C(=C/c1cccs1)c1cccs1)NC(c1ccccc1)c1ccccc1,-0.181
11,CN(CC(=O)NCCCN1CCOCC1)S(=O)(=O)c1ccc(Br)cc1,-0.0521
12,c1cn(CCCNC2=NCCCCC2)cn1,0.103
13,COc1ccsc1C(=O)N1CCN(Cc2ccc3c(c2)OCO3)CC1,-0.0804
14,O=C(C[n+]1cc(-c2ccc(Cl)cc2)n2c1CCC2)N1c2ccccc2Sc2ccccc21,-0.557
15,Cc1ccc(OCCN2C(=O)NC3(CCc4ccccc4C3)C2=O)cc1 (stereo not given),-0.248
16,FC(F)(F)c1cccc(NC(=S)NCc2ccccn2)c1,0.164
17,COc1ccc(C(=O)NCC(=O)OCC(=O)c2cc(OC)c(OC)c(OC)c2)cc1OC,-0.173
18,COc1cc(/C=C(\C#N)C(N)=O)ccc1OS(=O)(=O)c1ccc(C)cc1,-0.309
19,CC1CCN(CC(=O)Nc2sc3c(c2C#N)CCC3)CC1,-0.0666
20,COc1ccc(CSc2nnc(SCc3ccc([N+](=O)[O-])cc3)s2)cc1,-0.17
21,COc1ccc(NC(=O)COC(=O)Cc2ccc(-c3ccccc3)cc2)c(OC)c1,-0.142
22,Cc1ccccc1CSc1ncc(C#N)c(N)n1,-0.442
23,COc1ccc(CNc2nc3nc(C)cc(C)n3n2)cc1OC,0.946
24,CN(C(=O)c1ccc(C(=O)N(C)C2CCCCC2)cc1)C1CCCCC1,0.244

row,SMILES,z-score
1,O=C(c1cc(-c2ccc(Cl)cc2)n(-c2ccc(Cl)c(Cl)c2)n1)N1CCOCC1,0.24
2,CC(Oc1ccc(F)cc1)C(=O)Nc1sc2c(c1C(=O)NCc1cccnc1)CCCC2 (stereo not given),-0.461
3,O=C(c1cc2ccccc2oc1=O)N(c1ccc(Cl)cc1)C1C=CS(=O)(=O)C1 (stereo not given),-0.236
4,CC(NS(=O)(=O)c1cccc(S(=O)(=O)c2ccccc2)c1)C(=O)O (stereo not given),0.0424
5,CN(C)S(=O)(=O)c1ccc(N2CCCC2)c(C(=O)Nc2nc3c(ccc4ccccc43)s2)c1,0.513
6,Cc1cc(C(F)(F)F)c2c(N)c(C(=O)Nc3cc(C)on3)sc2n1,0.209
7,CN(C)CCN1C(=O)c2oc3ccc(Cl)cc3c(=O)c2C1c1cccc(Br)c1 (stereo not given),1.89
8,CC(=O)Nc1cc(NC(=O)CCCC(=O)O)ccc1Cl,0.939
9,N/C(=N\OC(=O)CCCN1C(=O)c2ccccc2C1=O)c1ccc(Br)cc1,-0.204
10,COc1cccc(-c2nc(Oc3cccc(C)c3C)c3ccccc3n2)c1O,-0.227
11,CC(/C=N/NC(=O)c1cc(-c2ccncc2)nc2ccccc12)=C\c1ccco1,-0.245
12,O=C(NC(NC(=S)N1CCOCC1)C(Cl)(Cl)Cl)c1cccc2ccccc12 (stereo not given),-0.281
13,COCCNC(=O)c1cc(-c2ccc3c(c2)OCO3)on1,0.152
14,CCCOc1ccc(/C=N/NC(=O)c2ccc(Cn3cc([N+](=O)[O-])cn3)o2)cc1,-0.292
15,COc1ccc(S(=O)(=O)NCC(c2cccnc2)N2CCN(c3ccccc3)CC2)cc1C (stereo not given),-0.00582
16,CC(=O)NC1(C(F)(F)F)C(=O)Nc2c1c(=O)n(C)c(=O)n2C (stereo not given),0.969
17,COC(=O)CSC1=C(C#N)C(c2ccsc2)CC(=O)N1 (stereo not given),-0.166
18,COc1ccc(C)cc1C1=Nc2ccccc2C1(C)C,-0.42
19,O=C(Cc1coc2ccc3ccccc3c12)NCc1cccs1,-0.0182
20,COC(=O)C1=C(O)/C(=C\c2ccc(O)c(OC)c2)N=C1C,-0.206
21,CCc1ccccc1NC(=O)Cn1nc(C(F)(F)F)cc1C1CC1,0.0708
22,CCCOC(=O)C(C)n1cnc2sc(C)c(C)c2c1=O (stereo not given),0.00229
23,Cc1ccc(NC(=O)CCC(=O)NNC(=O)c2ccco2)c(C)c1,-0.251
24,[O-][n+]1onc2c1CCC1N(O)C(c3ccccc3)CC21O (stereo not given),-0.29

row,SMILES,z-score
1,COc1ccc(Nc2nc3ccccc3nc2NS(=O)(=O)c2cccs2)cc1,-0.119
2,COc1cccc(NC(=O)Cn2c(=O)n(CCCC(=O)NCc3ccco3)c(=O)c3ccccc32)c1,-0.143
3,COc1cccc(C(=O)Nc2ccccc2C(=O)N2CCCC2)c1,-0.477
4,CN(C)S(=O)(=O)c1ccc2c(c1)c(=O)c(C(=O)N1CCOCC1)cn2C,0.863
5,CCOC(=O)c1c(NC(=O)c2cc(C(C)C)on2)sc(C(C)=O)c1C,-0.0726
6,CC(C)(C)c1ccc(C(=O)CSc2nc3ccccc3c(=O)[nH]2)cc1,0.164
7,CCOc1ccc(-n2c(N)c(C(=O)NCc3ccco3)c3nc4ccccc4nc32)cc1,-0.213
8,CCNc1nc(NCC)nc(SCCOC(=O)COc2ccc(Cl)cc2Cl)n1,-0.348
9,COc1cc(CC(=O)NCc2ccco2)cc(OC)c1OC,-0.12
10,Cc1nc(NC(CC(C)C)C(=O)O)c2nc(C)oc2n1 (stereo not given),-0.22
11,COc1ccc(C(=O)N(CCN2CCOCC2)CC(=O)NC2CCCC2)cc1OC,-0.289
12,O=[N+]([O-])c1cc2c(cc1/C=N/n1c(-c3ccccc3)n[nH]c1=S)OCO2,0.135
13,NC(=O)c1sc2nc3c(c(-c4ccccc4)c2c1N)CCC3,-0.58
14,O=C(NCc1ccccc1)c1c(F)c(F)c(F)c(F)c1F,-0.0578
15,CCCNC(=O)NS(=O)(=O)c1cnccc1Sc1ccc(Cl)c(Cl)c1,-0.403
16,CC1CCCCN1C(=O)Nc1cccc(Cl)c1 (stereo not given),0.789
17,CN1Cc2cc(C(=O)c3cc(Cl)cc(CSc4ncccn4)c3O)cnc2NC1=O,-0.712
18,CCOC(=O)CN1C(=O)C(Sc2n[nH]c(-c3ccccc3)n2)CCc2ccccc21 (stereo not given),-0.0693
19,CC1CCCCN1C(=O)c1cc(F)c(F)cc1Cl (stereo not given),0.0317
20,NS(=O)(=O)c1ccc(NC(=O)CCC2CCCCC2)cc1,0.495
21,COc1cccc(-c2nnc(SCC(=O)N3CCOCC3)o2)c1,0.305
22,CC(=O)OCC1OC(n2ccc3ccccc32)C(OC(C)=O)C(OC(C)=O)C1OC(C)=O (stereo not given),0.102

# — PubChem BioAssay AID488969 (Vanderbilt High Throughput Screening Facility, 2010)
